Results on 100 compounds are retold here after publication PMC6919601, “Identification of Plasmodium dipeptidyl aminopeptidase allosteric inhibitors by high throughput screening” (PLoS ONE, 2019).

The whole screen tested about 110,000 compounds, of which about 230 (0.21%) showed an effect of 50% or more. Some of the results follow.
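Further: 30 min substrate incubation versus DMSO and 10 µM JCP410 controls.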

This experiment deals with DPAP1 (Plasmodium falciparum, UniProt Q8IIJ9). The experiment can be described thus: primary screen, percent inhibition; read by cleavage of a fluorogenic dipeptide substrate; higher = more effect of the substance. On the set-up: species or system P. falciparum D10 trophozoite lysates; single well.
Chain of DPAP1 (Q8IIJ9 whole entry, looked up): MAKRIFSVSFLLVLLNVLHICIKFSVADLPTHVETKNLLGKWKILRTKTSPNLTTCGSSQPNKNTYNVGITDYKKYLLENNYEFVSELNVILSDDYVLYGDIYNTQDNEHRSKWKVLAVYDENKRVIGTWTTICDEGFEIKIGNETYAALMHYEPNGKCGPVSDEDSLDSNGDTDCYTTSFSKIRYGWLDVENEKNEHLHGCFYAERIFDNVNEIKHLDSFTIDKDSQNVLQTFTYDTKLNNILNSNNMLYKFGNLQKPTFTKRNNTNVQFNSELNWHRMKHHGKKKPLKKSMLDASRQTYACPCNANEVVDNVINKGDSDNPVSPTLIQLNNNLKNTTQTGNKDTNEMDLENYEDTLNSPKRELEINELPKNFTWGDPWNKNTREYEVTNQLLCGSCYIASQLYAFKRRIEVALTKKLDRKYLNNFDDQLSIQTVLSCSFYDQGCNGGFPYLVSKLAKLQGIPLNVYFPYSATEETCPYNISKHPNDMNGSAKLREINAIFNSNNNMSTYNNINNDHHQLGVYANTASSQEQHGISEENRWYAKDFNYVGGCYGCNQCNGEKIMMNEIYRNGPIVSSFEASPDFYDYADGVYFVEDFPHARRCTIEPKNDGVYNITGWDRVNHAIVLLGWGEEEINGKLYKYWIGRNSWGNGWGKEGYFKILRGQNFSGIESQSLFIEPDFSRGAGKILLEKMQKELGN
With `NS(=O)(=O)c1ccc(CCNc2ncnc3[nH]cnc23)cc1`, the “% Inhibition @ 10 uM” value is on record as 0.221%. Then `O=Cc1cccn1-c1sc2c(c1C(=O)O)CCCC2`, with -4.11%. Consider `COc1cc(-c2nnc(SCC(=O)NC3CCCCC3)o2)cc(OC)c1OC`, for which the “% Inhibition @ 10 uM” value came out at 11%.

With `COc1ccc(C(=O)N2CCN(Cc3ccccc3C(F)(F)F)CC2)cc1OC`, the “% Inhibition @ 10 uM” value is on record as 0.964%. `C=Cc1ccc(Cn2c(C(=O)O)c(CNC3CCN(Cc4ccccc4)CC3)c3ccccc32)cc1`: the “% Inhibition @ 10 uM” value amounted to 9.46%. On to `CN1CCC(NC(c2ccccc2)c2ccc(Cl)cc2)CC1` (stereo not shown), for which the “% Inhibition @ 10 uM” value is 1.57%. As to `CCOc1ccc(CNC(=O)c2ccc(CS(=O)Cc3ccc(C)cc3)o2)cc1` (stereo not shown), the “% Inhibition @ 10 uM” value is listed as -6.67%. To `CCS(=O)(=O)N1CCC2(CC1)OC(=O)C(C)=C2C(=O)N1CCc2ccccc2C1` belongs 4.39%. To `O=[N+]([O-])c1ccc(CSc2nc3ccccc3s2)cc1` belongs -0.0369%; to `CCCc1ccc(OCc2ccc(C(=O)N3CCSCC3)o2)cc1`, 2.1%. Then `CCc1nn(CC(=O)NCCN2CCOCC2)c(=O)c2cc3sccc3n12`, with -3.35%.

Take `N#C/C(=C\C=C\c1ccccc1)C(=O)NCc1cccnc1`: the “% Inhibition @ 10 uM” value is 10.8%. To `COC(=O)c1cc(S(=O)(=O)N(Cc2ccccc2)C(C)C)c[nH]1` belongs -6.25%.

With `O=C(Nc1cccs1)Nc1cccnc1Cl`, the “% Inhibition @ 10 uM” value is -4.71%. To `CC1CCN(C(=O)CSc2nnc(Cc3ccccc3)o2)CC1` belongs -0.999%; to `Cc1ccnc(Nc2nc(-c3sc(NC(=O)c4ccccc4)nc3C)cs2)c1`, -9.24%.

For the compound `CNS(=O)(=O)c1ccc(OC)c(OC)c1`, the “% Inhibition @ 10 uM” value is 2.57%. Then `CCOC(=O)c1cc(-c2ccc(-c3ccccc3)cc2)nc2ccccc12`, with -4.91%. Then `CCCCC1COC(c2cccn2Cc2ccc(F)cc2)=N1` (stereo not shown), with 0.163%; and `COCc1[nH]nc2c1C(c1ccccc1OC)C(C#N)=C(N)O2` (stereo not shown), with 4.86%. With `Cc1ccc(OCC(=O)Nc2cccc(C#N)c2)c(Br)c1`, the “% Inhibition @ 10 uM” value is -4.14%. Then `CC1CCN(C(=O)C2CCN(C(=O)c3cc4sccc4n3Cc3ccc(F)cc3)CC2)CC1`, with 3.4%; and `CC(C)(C)C(=O)/C=C(\NCc1ccccc1)C(=O)NCc1ccccc1`, with 2.18%; and `COc1ccc2c(c1)nc(SCc1ccc(Cl)cc1)n2C`, with 6.47%.

For `Nc1no[n+]([O-])c1C(=O)NCCc1c[nH]c2ccccc12`, the “% Inhibition @ 10 uM” value was 1.76%. Take `Cc1coc2c1c(C)cc1oc(=O)c(CC(=O)O)c(C)c12`: the “% Inhibition @ 10 uM” value is reported as -1.15%. Regarding `Cc1[nH]c2ccc(C(=O)NCCCN3CCC(Cc4ccccc4)CC3)cc2c1C`, the “% Inhibition @ 10 uM” value is given as 1.95%.

Regarding `O=C(O)c1c(CNC2CCCc3ccccc32)c2ccccc2n1Cc1cccc(Cl)c1` (stereo not shown), the “% Inhibition @ 10 uM” value was 3.54%. Turning to `CCOc1cc(C)nc(-c2ccccc2O)n1`, the “% Inhibition @ 10 uM” value is -3.26%. Then `CCc1ccc(CNC(=O)Cn2ncc3c4cc(C)ccc4nc-3c2O)cc1`, with 0.708%; and `CC(C)C[C@H](NC(=O)c1ccc(-c2ccccc2F)nc1)C(=O)NCC#N`, with -0.207%; and `CCOc1ccc(NC(=O)CC2S/C(=N\c3ccc(Br)cc3)N(C)C2=O)cc1` (stereo not shown), with -0.545%. In the case of `CCCCN(C)C(=O)C1c2ccccc2C(=O)N2CCc3ccccc3C12` (stereo not shown), the “% Inhibition @ 10 uM” value is reported as -5.09%. To `O=S(=O)(c1cccc(S(=O)(=O)N2CCOCC2)c1)c1cccc(S(=O)(=O)N2CCOCC2)c1` belongs 9.22%. Then `Cc1ccc(C2=NC(=O)/C(=C/c3ccsc3)S2)cc1`, with 0.993%.

For `O=C1c2cccnc2C(=O)N1Cc1ccc(S(=O)(=O)N2CC=C(c3ccccc3)CC2)s1`, the “% Inhibition @ 10 uM” value was -2.19%.

With `COc1ccc(-c2cc3c(=O)n(CC(=O)N4CCC5(CC4)OCCO5)ncn3n2)cc1`, the “% Inhibition @ 10 uM” value was -6.58%. For `COc1ccc(C(=O)N2CC(=O)N(CCc3ccccc3)C(=O)C2)cc1OC`, the “% Inhibition @ 10 uM” value came to 2.8%. To `Cc1ccc(C(=O)Nc2nc3ccc(Cl)cc3s2)o1` belongs -5.13%; to `CCOc1ccc2nc(NC(=O)c3nc(SCC)ncc3Cl)sc2c1`, 2.19%. To `CC(Cc1c[nH]c2ccccc12)NC(=O)NC(=O)c1ccc(Cl)cc1` (stereo not shown) belongs -1.76%; to `COc1cc(/C=C2\SC(=N)N(c3ccc(Br)cc3)C2=O)ccc1OC(C)C(=O)O` (stereo not shown), 2.95%; to `Cc1cc(C)c(S(=O)(=O)Nc2ccccc2-c2ccccc2)c(C)c1`, 5.06%. To `COc1ccc(CN2CCN(Cc3ccc(SC)cc3)CC2)cc1OC` belongs 6.29%. With `CCC(C)c1ccc(NS(=O)(=O)c2ccc(Cl)cc2)cc1` (stereo not shown), the “% Inhibition @ 10 uM” value is -4.91%. Take `CC1CCCCN1Cc1coc2c(Cl)cc(Cl)cc2c1=O` (stereo not shown): the “% Inhibition @ 10 uM” value is listed as -1.64%. In the case of `CN1C(=O)CCC1(O)c1ccccc1` (stereo not shown), the “% Inhibition @ 10 uM” value is reported as -7.93%. Then `C=CCn1c(SCC(=O)N2CCOCC2)nc2sc(-c3ccccc3)cc2c1=O`, with -4.48%. Consider `O=C(NCc1cccnc1)c1ccc2nc(-c3ccccc3)c(-c3ccccc3)nc2c1`, for which the “% Inhibition @ 10 uM” value is listed as -2.9%. Then `CN1CCN(c2ncnc3sc4c(c23)CCCC4)CC1`, with -1.29%. Then `CN1CCN(C(=O)c2c(NC(=O)c3ccccc3)sc3c2CCCC3)CC1`, with 14.3%. Regarding `CCN1CCN(S(=O)(=O)/C=C/c2ccccc2)CC1`, the “% Inhibition @ 10 uM” value worked out at 3.96%. To `COc1ccccc1N1C(=O)C2C(c3ccccc3)C=CC(c3ccccc3)C2C1=O` (stereo not shown) belongs 0.716%.

For `Cn1c2c(c(=O)n(C)c1=O)C(c1ccsc1)C1=C(O)c3ccccc3C1=N2` (stereo not shown), the “% Inhibition @ 10 uM” value turned out to be 5.65%. Then `Cc1c(C(=O)NCc2ccc(F)cc2)oc2ccc(S(=O)(=O)N3CCCCCC3)cc12`, with 5.5%; and `O=C(CSc1nnc2sc3ccccc3n12)N1N=CCC1c1ccccc1` (stereo not shown), with 0.564%; and `CCC(C(=O)Nc1nc2nc(C)cc(O)n2n1)c1ccccc1` (stereo not shown), with 0.401%.

Turning to `NS(=O)(=O)c1ccc2c(O)cc(S(N)(=O)=O)cc2c1`, the “% Inhibition @ 10 uM” value is -6.21%.

Take `Cc1ccc(NCN2C(=O)C3CC=CCC3C2=O)cc1` (stereo not shown): the “% Inhibition @ 10 uM” value came to 14.2%. In the case of `CC(C)NC(C)C(O)c1ccc2ccccc2c1` (stereo not shown), the “% Inhibition @ 10 uM” value is given as -0.505%.

As to `O=c1c2c([nH]c(=S)n1C1CCCC1)-c1ccccc1CC21CCCCC1`, the “% Inhibition @ 10 uM” value came to 2.81%. On to `CCCN(CCC)CCCn1cnc2c3cc(F)ccc3nc-2c1O`, for which the “% Inhibition @ 10 uM” value is -1.74%. To `c1ccc2c(CN3CCSCC3)ccnc2c1` belongs 0.472%; to `CCNC(=O)c1cc(-c2cccc(C)c2)nc2ccccc12`, 0.528%; to `COc1cc(C=C2C(=O)N(C)C(=O)N(C)C2=O)ccc1Oc1c(F)c(F)c(F)c(F)c1F`, 2.8%.

`O=C(CN1C(=O)S/C(=C/c2cccc(O)c2)C1=O)Nc1ccccc1`: the “% Inhibition @ 10 uM” value amounted to 2.22%. Then `COc1ccc(OCCCN2CCC(Cc3ccccc3)CC2)cc1`, with -1.82%; and `CCN(c1ccccc1)S(=O)(=O)c1ccc(F)cc1`, with 3.48%. For the compound `CN1C(=O)CN=C(c2ccc(Cl)cc2)c2cc(Cl)ccc21`, the “% Inhibition @ 10 uM” value is 0.843%. To `COc1ccc(C2NC(=O)c3c(sc4c3CCCC4)N2)cc1Cl` (stereo not shown) belongs 2.86%.

As for `Cc1cc(NC(=O)CN2CCN(C(=O)c3ccco3)CC2)nc2c1c(=O)oc1ccccc12`, the “% Inhibition @ 10 uM” value is recorded as -3.87%.

For `CCN(CC)c1c(S(=O)(=O)c2ccccc2)cnc2ccc(F)cc12`, the “% Inhibition @ 10 uM” value is -6.07%. Then `CCOC(=O)c1cc(-c2ccc(C)cc2)n(CC(=O)NCC2CCCO2)c1C` (stereo not shown), with 4.88%; and `CCC(C)c1ccc(NS(=O)(=O)c2cc(Cl)ccc2Cl)cc1` (stereo not shown), with 3%; and `Cc1nc2nc(CNC(=O)OC(C)(C)C)nn2c(C)c1CCC(=O)NCc1ccccc1`, with 1.22%. To `Cc1cccc(NC(=O)COc2ccc(C(C)(C)C)cc2)n1` belongs 4.66%; to `CCCN(CCC)C(=O)Cn1ncc2c3ccccc3n(C)c2c1=O`, -0.23%; to `CCOC(=O)N1CCN(C/C(C)=C/c2ccccc2)CC1`, -1.78%. To `COc1ccc(C2C(C#N)=C(N)OC3=C2C(=O)CCC3)cc1COc1ccc(C)cc1` (stereo not shown) belongs 3.19%; to `O=C(O)C1CCCCC1C(=O)N1CCN(c2ccc(F)cc2)CC1` (stereo not shown), -2.17%; to `Cc1cc(C)cc(OCC(O)CN2CCN(c3ccccc3F)CC2)c1` (stereo not shown), -5.35%. On to `CS(=O)(=O)NCc1csc(-c2ccccc2)n1`, for which the “% Inhibition @ 10 uM” value is given as -0.72%. On to `CCCCNc1cc(C)oc(=O)c1C(C)=O`, for which the “% Inhibition @ 10 uM” value was found to be 0.708%. Regarding `COc1ccc(N2C(=O)CC(NC3CCCCCCC3)C2=O)cc1` (stereo not shown), the “% Inhibition @ 10 uM” value was 31.4%. Then `CCOC(=O)N1CCN(CC(O)COc2ccccc2C(C)CC)CC1` (stereo not shown), with 3.66%.

As to `C[C@@H](C[C@H](NC(=O)c1ccc(-c2ccccc2Cl)cc1)C(=O)NCC#N)c1ccccc1`, the “% Inhibition @ 10 uM” value is recorded as -3.14%. To `Cc1cccc(-n2c(CNC(=O)COc3ccccc3)nnc2SCC(=O)Nc2nccs2)c1` belongs -5.17%. To `CCOc1cc(C(=O)NCCSc2c[nH]c3ccccc23)cc(OCC)c1OCC` belongs -0.228%; to `O=C(CCc1ccc(S(=O)(=O)NCc2ccccc2)cc1)N1CCN(c2ccccc2F)CC1`, 0.389%. `O=C(NCCCN1CCCC1=O)C1CCN(S(=O)(=O)N2CCOCC2)CC1`: the “% Inhibition @ 10 uM” value is 0.718%. `CN(C)CCNC1CCCCCCC1`: the “% Inhibition @ 10 uM” value is 3.48%. To `COc1cc(S(=O)(=O)N2CCN=C2c2ccccc2)c(OC)cc1Br` belongs 0.245%.

On to `CCc1ccc(C2=NN(CCC(=O)NCCCOC(C)C)C(=O)CC2)cc1`, for which the “% Inhibition @ 10 uM” value is recorded as -0.971%. To `C=CCc1ccccc1OCCSc1nc(-c2ccco2)nc2cc(=O)[nH]n12` belongs -2.48%; to `CCCCOc1ccc(C(C)NC(=O)C2CC(=O)N(CCc3ccc(C)cc3)C2)cc1` (stereo not shown), -1.79%. Turning to `Cc1ccc(N2C(=O)C3C4C=CC(C4)C3C2=O)cc1Br` (stereo not shown), the “% Inhibition @ 10 uM” value is reported as 10.1%.

As for `CSCC[C@@H](C(=O)NCc1cccc(C(C)=O)c1)N1Cc2ccccc2C1=O`, the “% Inhibition @ 10 uM” value is reported as -4.1%.

For `O=C1C2C3CCC(C3)C2C(=O)N1Cc1ccc(F)cc1` (stereo not shown), the “% Inhibition @ 10 uM” value is given as 9.86%.

As for `CN1C(=O)C(=CNc2ccccc2Br)C(=O)N(C)C1=O`, the “% Inhibition @ 10 uM” value is on record as -2.87%. Then `Cc1nc2ccc(Br)cc2c2c1CC(C)S2` (stereo not shown), with -2.89%.
